The list shows a part of the results.
Columns and labels:
Experiment in all cases: glycan array binding signal (z-score within array); higher = stronger binding
Details in all cases: glycan notation: IUPAC condensed, linker removed
[1] = target: Neu5Ac(a2-6)Gal(b1-4)GlcNAc(b1-3)Gal(b1-4)[Fuc(a1-3)]GlcNAc(b1-3)Gal(b1-4)[Fuc(a1-3)]GlcNAc
Procedure, shortened: (§1)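 The Consortium for Functional Glycomics database supplied 3228 glycan arrays, of which those lacking an available protein sequence were dropped. The binding signal, a within-array Z-score, was averaged across arrays of the same protein sequence and across linkers. Negative scores can be read as non-binding.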

[2] = target: Neu5Ac(a2-6)Gal(b1-4)GlcNAc(b1-3)GalNAc
Procedure, shortened: as §1

[3] = target: Neu5Ac(a2-6)Gal(b1-4)GlcNAc(b1-3)[Neu5Ac(a2-6)Gal(b1-4)GlcNAc(b1-6)]GalNAc
Procedure, shortened: as §1

[4] = target: Neu5Ac(a2-6)Gal(b1-4)GlcNAc(b1-6)GalNAc
Procedure, shortened: as §1

[5] = target: Neu5Ac(a2-6)Gal(b1-4)GlcNAc(b1-6)[Gal(b1-3)GlcNAc(b1-3)]Gal(b1-4)Glc
Procedure, shortened: as §1

[6] = target: Neu5Ac(a2-6)Gal(b1-4)GlcNAc(b1-6)[Gal(b1-3)]GalNAc
Procedure, shortened: as §1

[7] = target: Neu5Ac(a2-6)Gal(b1-4)GlcNAc6S
Procedure, shortened: as §1

Neu5Ac(a2-6)GalNAc = target: Neu5Ac(a2-6)GalNAc
Procedure, shortened: as §1

[8] = target: Neu5Ac(a2-6)GalNAc(b1-4)GlcNAc
Procedure, shortened: as §1

[9] = target: Neu5Ac(a2-6)GalNAc(b1-4)GlcNAc6S
Procedure, shortened: as §1

[10] = target: Neu5Ac(a2-6)GlcNAc(b1-4)GlcNAc
Procedure, shortened: as §1

[11] = target: Neu5Ac(a2-6)GlcNAc(b1-4)GlcNAc(b1-4)GlcNAc
Procedure, shortened: as §1

Neu5Ac(a2-8)Neu5Ac = target: Neu5Ac(a2-8)Neu5Ac
Procedure, shortened: as §1

[12] = target: Neu5Ac(a2-8)Neu5Ac(a2-3)Gal(b1-3)GalNAc(b1-4)[Neu5Ac(a2-3)]Gal(b1-4)Glc
Procedure, shortened: as §1

[13] = target: Neu5Ac(a2-8)Neu5Ac(a2-3)Gal(b1-3)GalNAc(b1-4)[Neu5Ac(a2-8)Neu5Ac(a2-3)]Gal(b1-4)Glc
Procedure, shortened: as §1

[14] = target: Neu5Ac(a2-8)Neu5Ac(a2-3)Gal(b1-4)Glc
Procedure, shortened: as §1

[15] = target: Neu5Ac(a2-8)Neu5Ac(a2-3)Gal(b1-4)GlcNAc
Procedure, shortened: as §1

[16] = target: Neu5Ac(a2-8)Neu5Ac(a2-3)[Gal(b1-3)GalNAc(b1-4)]Gal(b1-4)Glc
Procedure, shortened: as §1

[17] = target: Neu5Ac(a2-8)Neu5Ac(a2-3)[GalNAc(b1-4)]Gal(b1-4)Glc
Procedure, shortened: as §1

[18] = target: Neu5Ac(a2-8)Neu5Ac(a2-8)Neu5Ac
Procedure, shortened: as §1

[19] = target: Neu5Ac(a2-8)Neu5Ac(a2-8)Neu5Ac(a2-3)Gal(b1-4)Glc
Procedure, shortened: as §1

[20] = target: Neu5Ac(a2-8)Neu5Ac(a2-8)Neu5Ac(a2-3)[Gal(b1-3)GalNAc(b1-4)]Gal(b1-4)Glc
Procedure, shortened: as §1

[21] = target: Neu5Ac(a2-8)Neu5Ac(a2-8)Neu5Ac(a2-3)[GalNAc(b1-4)]Gal(b1-4)Glc
Procedure, shortened: as §1

[22] = target: Neu5Ac(a2-8)Neu5Ac(a2-8)Neu5Ac(a2-8)Neu5Ac(a2-3)[GalNAc(b1-4)]Gal(b1-4)Glc
Procedure, shortened: as §1

[23] = target: Neu5Ac(a2-8)Neu5Gc(a2-3)Gal(b1-4)GlcNAc
Procedure, shortened: as §1

[24] = target: Neu5Ac(b2-6)Gal(b1-4)GlcNAc
Procedure, shortened: as §1

Neu5Ac(b2-6)GalNAc = target: Neu5Ac(b2-6)GalNAc
Procedure, shortened: as §1

[25] = target: Neu5Ac9Ac(a2-3)Gal(b1-3)GlcNAc
Procedure, shortened: as §1

[26] = target: Neu5Ac9Ac(a2-3)Gal(b1-4)GlcNAc
Procedure, shortened: as §1

[27] = target: Neu5Ac9Ac(a2-6)Gal(b1-4)GlcNAc
Procedure, shortened: as §1

[28] = target: Neu5Gc(a2-3)Gal(b1-3)GlcNAc
Procedure, shortened: as §1

[29] = target: Neu5Gc(a2-3)Gal(b1-3)[Fuc(a1-4)]GlcNAc
Procedure, shortened: as §1

Neu5Gc(a2-3)Gal(b1-4)Glc = target: Neu5Gc(a2-3)Gal(b1-4)Glc
Procedure, shortened: as §1

[30] = target: Neu5Gc(a2-3)Gal(b1-4)GlcNAc
Procedure, shortened: as §1

[31] = target: Neu5Gc(a2-3)Gal(b1-4)GlcNAc(b1-3)Gal(b1-4)GlcNAc(b1-2)Man(a1-3)[Neu5Gc(a2-3)Gal(b1-4)GlcNAc(b1-3)Gal(b1-4)GlcNAc(b1-2)Man(a1-6)]Man(b1-4)GlcNAc(b1-4)GlcNAc
Procedure, shortened: as §1

[32] = target: Neu5Gc(a2-3)Gal(b1-4)[Fuc(a1-3)]GlcNAc
Procedure, shortened: as §1

[33] = target: Neu5Gc(a2-6)Gal(b1-4)GlcNAc
Procedure, shortened: as §1

Neu5Gc(a2-6)GalNAc = target: Neu5Gc(a2-6)GalNAc
Procedure, shortened: as §1

[34] = target: Neu5Gc(a2-8)Neu5Ac(a2-3)Gal(b1-4)GlcNAc
Procedure, shortened: as §1

[35] = target: Neu5Gc(a2-8)Neu5Gc(a2-3)Gal(b1-4)GlcNAc
Procedure, shortened: as §1

[36] = target: Neu5Gc(a2-8)Neu5Gc(a2-3)Gal(b1-4)GlcNAc(b1-3)Gal(b1-4)GlcNAc
Procedure, shortened: as §1

[37] = target: Neu5Gc(a2-8)Neu5Gc(a2-6)Gal(b1-4)GlcNAc
Procedure, shortened: as §1

[38] = target: Neu5Gc(b2-6)Gal(b1-4)GlcNAc
Procedure, shortened: as §1

B1: PpFlo2 (Pichia pastoris) (protein)
chain: MGSSHHHHHHSSGLVPRGSHMDDSGNGDNSDTAYGCDITTNAVDGFDATIYQYNANDLRLIRDPTFMSTGYLGRNVLNKISGVTVPGFNIWNPSSRTATVYGVKNVNYYNMVLELKGYFKADVSGDYKLTLSHIDDSSMLFFGKETAFKCCDAGSIPLNEAPTDYSLFTIKPSNQVNSEVISATQYLEAGKYYPVRIVFVNALERARFDFKLTIPSGAVLDDFQNYIYQFGDLDENSCHE
B1 was tested, and the “glycan array binding signal (z-score)” value [1] was -0.263, the “glycan array binding signal (z-score)” value [2] was -0.269 and the “glycan array binding signal (z-score)” value [3] was -0.053. For the same binder, the “glycan array binding signal (z-score)” value [4] was -0.275, the “glycan array binding signal (z-score)” value [5] was -0.26 and the “glycan array binding signal (z-score)” value [6] was -0.265. For the same binder, the “glycan array binding signal (z-score)” value [7] was -0.297, the “glycan array binding signal (z-score)” value (Neu5Ac(a2-6)GalNAc) was -0.3 and the “glycan array binding signal (z-score)” value [8] was -0.299. The “glycan array binding signal (z-score)” value [9] was -0.276, the “glycan array binding signal (z-score)” value [10] was -0.281 and the “glycan array binding signal (z-score)” value [11] was -0.275. For the same binder, the “glycan array binding signal (z-score)” value (Neu5Ac(a2-8)Neu5Ac) was -0.296, the “glycan array binding signal (z-score)” value [12] was -0.266 and the “glycan array binding signal (z-score)” value [13] was -0.2. For the same binder, the “glycan array binding signal (z-score)” value [14] was -0.301, the “glycan array binding signal (z-score)” value [15] was -0.272 and the “glycan array binding signal (z-score)” value [16] was -0.297. The “glycan array binding signal (z-score)” value [17] was -0.301, the “glycan array binding signal (z-score)” value [18] was -0.301 and the “glycan array binding signal (z-score)” value [19] was -0.298. For the same binder, the “glycan array binding signal (z-score)” value [20] was -0.275, the “glycan array binding signal (z-score)” value [21] was -0.303 and the “glycan array binding signal (z-score)” value [22] was -0.302. The “glycan array binding signal (z-score)” value [23] was -0.27, the “glycan array binding signal (z-score)” value [24] was -0.301 and the “glycan array binding signal (z-score)” value (Neu5Ac(b2-6)GalNAc) was -0.304. For the same binder, the “glycan array binding signal (z-score)” value [25] was -0.299, the “glycan array binding signal (z-score)” value [26] was -0.297 and the “glycan array binding signal (z-score)” value [27] was -0.297. For the same binder, the “glycan array binding signal (z-score)” value [28] was -0.301, the “glycan array binding signal (z-score)” value [29] was -0.265 and the “glycan array binding signal (z-score)” value (Neu5Gc(a2-3)Gal(b1-4)Glc) was -0.298. For the same binder, the “glycan array binding signal (z-score)” value [30] was -0.299, the “glycan array binding signal (z-score)” value [31] was -0.245 and the “glycan array binding signal (z-score)” value [32] was -0.293. For the same binder, the “glycan array binding signal (z-score)” value [33] was -0.294, the “glycan array binding signal (z-score)” value (Neu5Gc(a2-6)GalNAc) was -0.298 and the “glycan array binding signal (z-score)” value [34] was -0.277. The “glycan array binding signal (z-score)” value [35] was -0.271, the “glycan array binding signal (z-score)” value [36] was -0.255 and the “glycan array binding signal (z-score)” value [37] was -0.273. For the same binder, the “glycan array binding signal (z-score)” value [38] was -0.298.
